# Screen size: about 310,000 compounds; about 2,200 (0.71%) showed an effect of 50% or more. The effect is printed as a negative number. This is one part of the list.
# Molecular target: human ether-à-go-go-related gene (hERG) potassium channel (human, UniProt Q12809)
# Assay: primary screen, population patch clamp on CHO cells stably expressing hERG
# human ether-à-go-go-related gene (hERG) potassium channel, sequence (Q12809 whole entry, looked up): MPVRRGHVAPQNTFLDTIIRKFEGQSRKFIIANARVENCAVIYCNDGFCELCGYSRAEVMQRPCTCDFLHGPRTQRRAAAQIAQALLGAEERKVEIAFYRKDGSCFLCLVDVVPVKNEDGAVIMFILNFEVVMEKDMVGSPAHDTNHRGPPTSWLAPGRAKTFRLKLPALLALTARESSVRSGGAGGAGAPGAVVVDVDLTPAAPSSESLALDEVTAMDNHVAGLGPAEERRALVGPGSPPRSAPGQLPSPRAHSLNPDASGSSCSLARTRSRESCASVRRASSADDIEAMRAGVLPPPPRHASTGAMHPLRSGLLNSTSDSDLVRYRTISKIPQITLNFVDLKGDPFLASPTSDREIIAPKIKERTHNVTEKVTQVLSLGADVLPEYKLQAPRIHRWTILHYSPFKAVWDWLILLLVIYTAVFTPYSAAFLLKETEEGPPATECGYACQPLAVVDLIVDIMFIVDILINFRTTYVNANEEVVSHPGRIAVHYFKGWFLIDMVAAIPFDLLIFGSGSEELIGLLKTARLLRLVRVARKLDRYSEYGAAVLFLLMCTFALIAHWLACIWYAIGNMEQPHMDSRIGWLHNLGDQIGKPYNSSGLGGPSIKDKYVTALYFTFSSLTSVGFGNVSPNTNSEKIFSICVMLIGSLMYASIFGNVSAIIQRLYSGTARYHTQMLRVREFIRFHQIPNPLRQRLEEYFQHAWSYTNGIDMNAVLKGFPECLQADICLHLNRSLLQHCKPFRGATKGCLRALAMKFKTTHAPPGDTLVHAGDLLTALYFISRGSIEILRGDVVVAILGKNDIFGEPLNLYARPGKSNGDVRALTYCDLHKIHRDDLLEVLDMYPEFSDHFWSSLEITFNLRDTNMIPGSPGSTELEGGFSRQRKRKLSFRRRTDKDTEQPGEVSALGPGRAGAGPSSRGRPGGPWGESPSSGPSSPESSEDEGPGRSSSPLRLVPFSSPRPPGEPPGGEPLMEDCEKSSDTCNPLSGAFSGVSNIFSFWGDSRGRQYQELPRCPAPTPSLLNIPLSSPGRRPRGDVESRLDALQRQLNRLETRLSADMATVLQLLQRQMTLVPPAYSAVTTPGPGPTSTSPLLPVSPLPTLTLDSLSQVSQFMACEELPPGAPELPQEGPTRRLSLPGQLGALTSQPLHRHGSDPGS
row,SMILES,"hERG current change (%, negative = inhibition) at 1uM [%]"
1,COc1ccc(-c2cc(C(=O)Nc3cc(OC)c(OC)c(OC)c3)no2)cc1,21.4
2,CCn1cc(CN2N=C(C)CC2c2ccccc2)c(C)n1 (stereo not drawn),13.2
3,CCOC(=O)N1CCN(c2c(F)cc3[nH]c(=S)[nH]c3c2Br)CC1,-7
4,COc1ccc(CCC(=O)Nc2ccc(C)c([N+](=O)[O-])c2)cc1,14.5
5,COc1ccc(NS(=O)(=O)c2c(C)[nH]c(=O)[nH]c2=O)c(OC)c1,24.1
6,COc1ccc([C@H]2/C=C\CN(Cc3ccc(N(C)C)cc3)[C@@H](C)C(=O)N2Cc2ccc(F)cc2)cc1,-3.39
7,O=C(N/N=C/c1cc2cc3c(cc2nc1Cl)OCCO3)c1ccccc1O,8.11
8,O=C(Cc1cccs1)Nc1ccc(S(=O)(=O)N2CCCCC2)cc1,14.8
9,COc1ccc(C(=O)CC(CC(=O)c2ccc(OC)cc2)C(=O)O)cc1,6.21
10,CCOC(=O)c1[nH]c(C)c(C(=O)OCC(=O)NCc2ccc(OC)c(OC)c2)c1C,-1.42
11,O=C(Cn1nc(C(=O)O)c2ccccc2c1=O)Nc1cc(C(F)(F)F)ccc1-n1cncn1,8.16
12,Cc1c(N(C(=O)CNC(=O)c2ccccc2)C2(C(=O)NC3CCCC3)CCCCC2)c(=O)n(-c2ccccc2)n1C,9.5
13,CCc1nc2c(c(SC)nn2-c2ccccc2)c(N)c1C(=O)OC,4.25
14,O=C(Cc1ccccc1)Nc1ccc(NC(=S)NC(=O)c2ccccc2)cc1,10.3
15,Nc1nncn1C(=O)c1ccc(Cl)cc1Cl,4.79
16,Br.O=C(CN1CCSC1=NCc1ccccc1)c1ccc(Cl)cc1,-5.13
17,CSCc1ccc(C(=O)NCc2ccc(C)cc2)cc1,3.91
18,Cn1c(CCN2CCN(c3ccccn3)CC2)nc2cc(NC(=O)COc3ccccc3)ccc21,-67
19,O=C(Cn1nnc(-c2ccccc2F)n1)Nc1ccc(C(=O)N2CCOCC2)cc1,-0.348
20,COc1cc(NS(=O)(=O)c2ccc(NC(=S)NC(=O)COc3ccccc3OC)cc2)nc(OC)n1,3.81
21,COc1ccccc1NNC(=O)c1cc(C(C)(C)C)nn1Cc1ccccc1,-4.72
22,CN1CCN(c2ccc(Cl)cc2NC(=O)c2ccc(S(=O)(=O)N3CCCCCC3)cc2)CC1,12.3

row,SMILES,"hERG current change (%, negative = inhibition) at 1uM [%]"
1,COc1cc(/C=N/NC(=O)c2cccc(S(=O)(=O)N3CCCC3)c2)cc(OC)c1O,11.8
2,CC(=O)c1cccc(NS(=O)(=O)c2cc(OCC(N)=O)c(C)cc2Cl)c1,5.36
3,COc1cc(/C=N/NC(=O)c2ccc3nc[nH]c3c2)ccc1O,7.6
4,COc1ccc(CC(=O)O/N=C(\N)Cc2ccc(OC)cc2)cc1,5.29
5,Cc1ccc(C(=O)Nc2ccc(C(=O)N/N=C/c3ccccn3)cc2)cc1,14.6
6,Cc1ccc(S(=O)(=O)N(C)/N=C2/C(=O)N(CC(=O)O)c3ccccc32)cc1,14
7,Cc1cccc2sc(NC(=O)CCn3cccc3)nc12,16.2
8,Cc1cc(OC2CCCCC2)nc(NCc2ccccc2)n1,9.71
9,O=C1OC(c2ccc(Cl)cc2)=C/C1=C/c1cccnc1,15.8
10,CCCCCN(C(=O)CCC(=O)OCc1ccc(Cl)cc1Cl)c1c(N)n(CCCC)c(=O)[nH]c1=O,-7.18
11,C/C(=N\Oc1cccc(F)n1)c1ccc(Cl)cc1Cl,16
12,COCCCNC(=O)CCc1c(C)nc2c(c(C)nn2-c2ccccc2)c1C,8.19
13,COc1cccc(/C=N/NC(=O)c2ccc(=O)[nH]n2)c1O,12.3
14,Cc1ccccc1OCC(=O)OCC(=O)c1ccc(OCc2ccccc2)cc1,14
15,CC1CC(C)(C)NC(=S)N1CC(=O)N1CCN(Cc2ccccc2)CC1 (stereo not drawn),11.6
16,COc1ccc(-c2nc(NC(=O)c3ccccc3)sc2-c2ccc([N+](=O)[O-])cc2)cc1,8.19
17,CN(C)CCCNc1nc2sc3c(c2c(=O)n1CCc1ccccc1)CCCCC3,12.3
18,CCC(C)NC(=O)c1ccccc1NC(=O)c1ccccc1N(C)S(C)(=O)=O (stereo not drawn),0.0328
19,CC(C)(C)CC(C)(C)NC(=O)c1ccccc1,10.4
20,Cc1c(C(N)=O)c(-c2ccccc2)nn1-c1ccccc1,-5.91
21,Cc1ccc(OCC(O)CN2CCN(CC(O)COC(C)C)CC2)c(C(C)(C)C)c1 (stereo not drawn),-47.8
22,CCOC(=O)N1CCN(S(=O)(=O)c2cn(C)c(=O)n(C)c2=O)CC1,14.6

row,SMILES,"hERG current change (%, negative = inhibition) at 1uM [%]"
1,O=C(NC(=S)NC1CCS(=O)(=O)C1)c1cccc([N+](=O)[O-])c1 (stereo not drawn),12.8
2,O=C(NC(=S)N1CCc2ccccc21)c1ccc(Br)o1,14.2
3,O=C(CCCCCN1C(=O)CCC1=O)NCc1ccccc1,7.79
4,NC(=O)c1ccc(-c2nnn(CC(=O)N(C3CCCC3)C3CCS(=O)(=O)C3)n2)cc1 (stereo not drawn),2.21
5,CCCc1cc(=O)[nH]c(SCC(=O)N(C)Cc2ccccc2)n1,7.92
6,O=S(=O)(Nc1ccc(Cl)cc1)c1ccc(N2CCOCC2)c(NC(=S)NC2CC2)c1,18.8
7,C=C(C)CNC(=S)N1CCNC(=O)C1CC(=O)OC (stereo not drawn),16
8,CCOC(=O)c1c(NC(=O)COC(=O)Cn2c(C(F)(F)F)nc3ccccc32)sc(C)c1C,3.9
9,Cc1nn(CC(=O)Nc2ccc3c(c2)nc(CCN2CCCCC2)n3C)c(=O)c2ccccc12,-7.84
10,Cc1cccc(NC(=S)N2CCC(c3nc4ccccc4o3)CC2)c1,5.83
11,O=C(OCC(=O)N1CCc2ccccc21)c1n[nH]c(=O)c2ccccc12,18.1
12,COC(=O)c1cc(OC)c(OC)cc1NC(=O)C1CCCO1 (stereo not drawn),-5
13,c1ccc(-n2ccnc2)cc1,15.2
14,CCCc1n[nH]c2c1/C(=N\O)CCC2,15.7
15,O=C(COC(=O)c1ncc(Cl)c(Cl)c1Cl)NC1CCCCCC1,13.8
16,CCCC(=O)OCC(=O)Nc1ccc2c(c1)OCO2,14.4
17,CCN(CC(=O)NCc1ccc(F)cc1)CC(=O)NC1CCCC1,8.36
18,COc1ccccc1N1CCN(C(=O)C2CCC(CNS(=O)(=O)c3ccc(NC(C)=O)cc3)CC2)CC1 (stereo not drawn),8.27
19,Cc1cc(C)nc(NC(=O)Nc2ccccc2C(F)(F)F)n1,10.4
20,C[C@@H]1CCC[C@]2(O[C@@H](CCO)C[C@H](O)[C@H]2O)O1,8.84
21,C/C(=N\NS(=O)(=O)c1ccccc1)c1cccc(NC(=O)c2cccc(Cl)c2)c1,2.61
22,CCCN1CCN(CCCNC(=O)c2ccc(CS(=O)c3ccccc3C)o2)CC1 (stereo not drawn),9.22

row,SMILES,"hERG current change (%, negative = inhibition) at 1uM [%]"
1,Cc1ccc(S(=O)(=O)N2CCCC2C(=O)Nc2nccs2)cc1 (stereo not drawn),4.24
2,COc1ccc(CNc2ncc(-c3cccc([N+](=O)[O-])c3)n2C)c(OC)c1OC.O=C(O)C(=O)O,-16
3,COc1cc(C(=O)N2CCN(CCCc3ccccc3)CC2)cc(OC)c1OC,3.21
4,CCCn1c(SC(C)C(=O)NCC2CCCO2)nc2cc(Cl)ccc2c1=O (stereo not drawn),11.7
5,S=c1[nH]nc(-c2cc(-c3ccsc3)n[nH]2)n1-c1cccc2ccccc12,-6.75
6,CCN(CC)C(=O)c1ccc(NC(=O)Nc2ccccc2F)cc1,-7.85
7,Cc1ccc(C(=O)N2CCCCCC2)cc1Br,5.77
8,Cc1ccc(CNC(=O)C2CCC(=O)N(Cc3ccccc3F)C2)s1 (stereo not drawn),3.61
9,CC(C)C(=O)Nc1c2c(nn1-c1ccccc1)CSC2,11.8
10,CN(CCOc1ccc(-c2ccn(S(=O)(=O)c3ccc(Cl)cc3)n2)cc1)c1ccccn1,17.3
11,COc1ccccc1OCC(=O)Nc1ccc(O)cc1C(=O)O,5.8
12,CC1(C(=O)NCC2CC2)C=CC2(CCCCC2)N1C(=O)c1ccccc1 (stereo not drawn),-9.68
13,COc1ccc(-c2c(-c3cc(OC)cc(OC)c3)n(C)c3ccc(-c4cccc5[nH]ccc45)cc23)cc1,11.5
14,COc1ccccc1N1CCN(C(=O)/C=C/c2cccc([N+](=O)[O-])c2)CC1,5.45
15,COc1ccc(Nc2nc(C)cc(-c3cc(-c4ccccc4)on3)n2)cc1,8.73
16,CN(C(=O)c1ccc(NC(=O)Cc2ccccc2)cc1)c1ccccc1,5.65
17,Cc1nc(Cl)c(C(=O)NCc2ccccc2)c(C)c1Cl,6.15
18,CC1Cc2ccccc2N1C(=O)COC(=O)CSc1ccc(F)cc1 (stereo not drawn),0.833
19,CCOc1ccccc1NC(=O)c1ccc([N+](=O)[O-])cc1,12.6
20,CCC1Nc2ncnc(N3CCCCC3)c2N(Cc2ccc(Br)cc2)C1=O.O=C(O)C(F)(F)F (stereo not drawn),-0.0934
21,O=C(c1cc(F)ccc1F)C1CCCN(C(=O)c2ccc(F)cc2Cl)C1 (stereo not drawn),-5.11

# Reference: paper PMC4336329 (PLoS ONE, 2015)
